Source: PMC11149917, “Translational and Therapeutic Evaluation of RAS-GTP Inhibition by RMC-6236 in RAS-Driven Cancers” (Cancer Discovery, 2024)
This continues a long series; more values of the same kind are listed elsewhere.

Tested on: PRISM panel of 845 cancer cell lines
Experiment: PRISM assay
Format: cell-based, human
Experimental: The PRISM cell set comprised 845 cell lines representing more than 45 lineages (see Supplementary Table S1 for cell line information), which largely overlapped with the Cancer Cell Line Encyclopedia; https://portals.broadinstitute.org/ccle). Cell lines were grown in RPMI without phenol red and supplemented with 10% or 20% FBS for adherent and suspended lines, respectively. Parental cell lines were stably infected with a unique 24-nucleotide DNA barcode via lentiviral transduction and blasticidin selection. After selection, barcoded cell lines were expanded and subjected to quality control (Mycoplasma contamination test, an SNP test for confirming cell line identity, and barcode ID confirmation). Approved cell lines were then pooled (20–25 cell lines per pool) based on doubling time similarity and frozen in assay-ready vials.
RMC-6236 was added to 384-well plates at 8-point concentration with 3-fold dilutions in triplicate. These assay-ready plates were then seeded with the thawed cell line pools. Adherent cell pools were plated at 1,250 cells per well, whereas suspension and mixed adherent/suspension pools were plated at 2,000 cells per well. Treated cells were incubated for 5 days, and then lysed. Lysate plates were collapsed together prior to barcode amplification and detection.
Each cell line's unique barcode is located in the 3′UTR of the blasticidin-resistance gene and therefore is expressed as mRNA. Total mRNA was captured using magnetic particles that recognize polyA sequences. Captured mRNA was reverse-transcribed into cDNA and then the sequence containing the unique PRISM barcode was amplified using PCR. Finally, Luminex beads that recognize the specific barcode sequences in the cell set were hybridized to the PCR products and detected using a Luminex scanner which reports the signal as a median fluorescent intensity (MFI).
• Each detection well contained 10 control barcodes in increasing abundances as spike-in controls. For each plate, we first create a reference profile by calculating the median of the log2(MFI) values across negative control wells for each of these spiked-in barcodes. • For each well, a monotonic smooth p-spline was fitted to map the spike-in control levels to the reference profile. Next, we transform the log2(MFI) for each cell barcode using the fitted spline to allow well-to-well comparisons by correcting for amplification and detection artifacts. • Next, the separability between negative and positive control treatments was assessed. In particular, we calculated the error rate of the optimum simple threshold classifier between the control samples for each cell line and plate combination. The error rate is a measure of the overlap of the two control sets and was defined as error = (FP + FN)/n, where FP is false positives, FN is false negatives, and n is the total number of controls. A threshold was set between the distributions of positive and negative control log2(MFI) values (with everything below the threshold said to be positive and above said to be negative) such that this value is minimized. Additionally, we also calculated the dynamic range of each cell line. […] Additionally, any cell line that had less than 2 passing replicates was also omitted for the sake of reproducibility. Finally, we computed viability by normalizing with respect to the median negative control for each plate.
For every gene with nonsilent mutations in at least four cell lines, we compared the AUC values between cells with and without those mutations using a t test. This analysis was carried out for (i) the full data set; (ii) excluding cell lines with nonsilent KRAS mutations; and (iii) excluding cell lines that have either KRAS or NRAS nonsilent mutations.

CCn1c(-c2cc(N3CCN(C)CC3)cnc2[C@H](C)OC)c2c3cc(ccc31)-c1csc(n1)C[C@H](NC(=O)[C@H]1C[C@@H]1C)C(=O)N1CCC[C@H](N1)C(=O)OCC(C)(C)C2 [RMC-6236]
RMC-6236: RevMed PRISM: AUC (cell line G402_SOFT_TISSUE): 0.8685
RMC-6236: RevMed PRISM: AUC (cell line GI1_CENTRAL_NERVOUS_SYSTEM): 0.7189
RMC-6236: RevMed PRISM: AUC (cell line GP5D_LARGE_INTESTINE, KRAS p.G12D): 0.7332
RMC-6236: RevMed PRISM: AUC (cell line GRANTA519_HAEMATOPOIETIC_AND_LYMPHOID_TISSUE): 0.875
RMC-6236: RevMed PRISM: AUC (cell line H4_CENTRAL_NERVOUS_SYSTEM): 0.8759
RMC-6236: RevMed PRISM: AUC (cell line H103_UPPER_AERODIGESTIVE_TRACT): 0.6213
RMC-6236: RevMed PRISM: AUC (cell line HA1E_KIDNEY): 0.9707
RMC-6236: RevMed PRISM: AUC (cell line HCC78_LUNG): 0.6356
RMC-6236: RevMed PRISM: AUC (cell line HCT15_LARGE_INTESTINE, KRAS p.G13D): 0.8069
RMC-6236: RevMed PRISM: AUC (cell line HCT116_LARGE_INTESTINE, KRAS p.G13D): 0.7053
RMC-6236: RevMed PRISM: AUC (cell line HEC1A_ENDOMETRIUM, KRAS p.G12D): 0.5858
RMC-6236: RevMed PRISM: AUC (cell line HEC59_ENDOMETRIUM, NRAS p.A146V): 1
RMC-6236: RevMed PRISM: AUC (cell line HEC116_ENDOMETRIUM): 0.7363
RMC-6236: RevMed PRISM: AUC (cell line HEC151_ENDOMETRIUM, NRAS p.G12D): 0.6995
RMC-6236: RevMed PRISM: AUC (cell line HEC251_ENDOMETRIUM): 0.6732
RMC-6236: RevMed PRISM: AUC (cell line HEC265_ENDOMETRIUM): 0.8851
RMC-6236: RevMed PRISM: AUC (cell line HEPG2_LIVER, NRAS p.Q61L): 0.6146
RMC-6236: RevMed PRISM: AUC (cell line HKA1_SKIN, KRAS p.G12S): 0.8508
RMC-6236: RevMed PRISM: AUC (cell line HOS_BONE): 0.8239
RMC-6236: RevMed PRISM: AUC (cell line HOTHC_THYROID, NRAS p.Q61R): 0.8294
RMC-6236: RevMed PRISM: AUC (cell line HPBALL_HAEMATOPOIETIC_AND_LYMPHOID_TISSUE): 1
RMC-6236: RevMed PRISM: AUC (cell line HS611T_HAEMATOPOIETIC_AND_LYMPHOID_TISSUE): 1
RMC-6236: RevMed PRISM: AUC (cell line HS852T_SKIN, NRAS p.G12V): 0.9366
RMC-6236: RevMed PRISM: AUC (cell line HS939T_SKIN): 1
RMC-6236: RevMed PRISM: AUC (cell line HSC5_SKIN): 0.6392
RMC-6236: RevMed PRISM: AUC (cell line HT55_LARGE_INTESTINE): 0.7084
RMC-6236: RevMed PRISM: AUC (cell line HT1080_SOFT_TISSUE, NRAS p.Q61K): 0.2861
RMC-6236: RevMed PRISM: AUC (cell line HTMMT_ENDOMETRIUM): 0.8088
RMC-6236: RevMed PRISM: AUC (cell line HT_HAEMATOPOIETIC_AND_LYMPHOID_TISSUE): 0.8003
RMC-6236: RevMed PRISM: AUC (cell line HUH1_LIVER): 0.7293
RMC-6236: RevMed PRISM: AUC (cell line ICC4_BILIARY_TRACT): 0.862
RMC-6236: RevMed PRISM: AUC (cell line ICC9_BILIARY_TRACT, KRAS p.G12D): 0.4257
RMC-6236: RevMed PRISM: AUC (cell line ICC12_BILIARY_TRACT): 0.9188
RMC-6236: RevMed PRISM: AUC (cell line IHH4_THYROID): 0.9163
RMC-6236: RevMed PRISM: AUC (cell line J82_URINARY_TRACT): 0.9143
RMC-6236: RevMed PRISM: AUC (cell line JAR_PLACENTA): 0.8818
RMC-6236: RevMed PRISM: AUC (cell line JEG3_PLACENTA): 0.8862
RMC-6236: RevMed PRISM: AUC (cell line JHUEM2_ENDOMETRIUM): 0.9163
RMC-6236: RevMed PRISM: AUC (cell line JHUEM7_ENDOMETRIUM, NRAS p.E162Ter): 0.6285
RMC-6236: RevMed PRISM: AUC (cell line JL1_PLEURA): 0.7659
RMC-6236: RevMed PRISM: AUC (cell line JMURTK2_SOFT_TISSUE): 1
RMC-6236: RevMed PRISM: AUC (cell line JR_SOFT_TISSUE): 0.7752
RMC-6236: RevMed PRISM: AUC (cell line JURKAT_HAEMATOPOIETIC_AND_LYMPHOID_TISSUE): 1
RMC-6236: RevMed PRISM: AUC (cell line JURLMK1_HAEMATOPOIETIC_AND_LYMPHOID_TISSUE): 0.4938
RMC-6236: RevMed PRISM: AUC (cell line K029AX_SKIN): 0.8714
RMC-6236: RevMed PRISM: AUC (cell line K562_HAEMATOPOIETIC_AND_LYMPHOID_TISSUE): 0.5482
